# Source: the supplement of paper PMC4166925
# ± gives the standard deviation of the averaged measurements. In all, about 33,000 sequences were measured (“E-score (dimensionless, -0.5 to 0.5)”: median about -0.046, highest 2% from about 0.36 on). The list shows a part of the results.
# Tested on: T1, SpTbr T-box DNA-binding domain (GST fusion)
# T1 sequence: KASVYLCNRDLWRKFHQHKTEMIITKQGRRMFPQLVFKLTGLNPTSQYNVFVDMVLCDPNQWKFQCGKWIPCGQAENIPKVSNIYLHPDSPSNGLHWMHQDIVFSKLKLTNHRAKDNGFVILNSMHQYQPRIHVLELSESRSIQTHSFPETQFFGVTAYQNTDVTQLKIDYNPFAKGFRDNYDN
# Experiment: PBM E-score of 8-mer (E-score (dimensionless, -0.5 to 0.5)); Tbr is Tbrain of the sea star Patiria miniata (Pm) or the sea urchin Strongylocentrotus purpuratus (Sp); higher = stronger binding preference; most listed sequences are background and not binding sites
# Settings: the construct has about 5 more residues each side
# Summary of the method: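 Universal Agilent oligonucleotide arrays, made double-stranded by primer extension, were incubated with 200 nM GST-fused Tbr T-box DNA-binding domain in PBS (pH 7.5). The protein was expressed in BL21 E. coli at 20 °C and purified by glutathione affinity chromatography. After scanning and quantification, the Universal PBM Analysis Suite assigned an enrichment E-score to each ungapped 8-mer, averaged over duplicate arrays.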
row,Sequence,PBM E-score of 8-mer
1,GGGCGTAA,0.131 ± 0.047
2,AGGAGTTC,-0.0878 ± 0.073
3,AACTTCAG,-0.23 ± 0.022
4,AAGTGTAC,0.00907 ± 0.056
5,GGTTGAAA,-0.0413 ± 0.0068
6,GTGATTGA,0.129 ± 0.017
7,CGCAAACC,-0.00956 ± 0.028
8,AAGGAAGA,-0.274 ± 0.015
9,ACCTGCTG,0.0521 ± 0.065
10,AAACCCGA,-0.0333 ± 0.034
11,AGGCATGC,-0.293 ± 0.058
12,CGCGAGAC,0.362 ± 0.0035
13,CCCATGTA,-0.15 ± 0.095
14,GAGATAGA,-0.129 ± 0.048
15,TCCATGGA,-0.299 ± 0.02
16,GGCCTCTA,-0.108 ± 0.024
17,TAGTGTAA,0.216 ± 0.061
18,TATGCCCA,-0.172 ± 0.0048
19,AAATGCAC,-0.0295 ± 0.012
20,ATCAAGTG,0.141 ± 0.055
21,CCATATTA,-0.0793 ± 0.042
22,ATGCTCAC,0.277 ± 0.023

row,Sequence,PBM E-score of 8-mer
1,CCTTCGCC,0.0466 ± 0.011
2,ATTCGCGG,0.275 ± 0.026
3,ACATCTCC,0.104 ± 0.048
4,AAGTCTAA,-0.0918 ± 0.066
5,CAATTTAG,-0.0519 ± 0.043
6,CGGGTCGC,0.232 ± 0.0024
7,TAGGTAAA,-0.134 ± 0.015
8,TGTAGAAA,-0.0991 ± 0.044
9,TCTCATAA,-0.196 ± 0.12
10,AACCACTT,-0.0435 ± 0.018
11,AGCTTCCC,-0.121 ± 0.055
12,TGCTACAA,-0.124 ± 0.023
13,AACCTGGA,-0.129 ± 0.067
14,CCCCTCAG,-0.232 ± 0.0077
15,CATACAAC,0.0189 ± 0.0052
16,CCGGATTC,0.0737 ± 0.067
17,CTCCTACA,0.00648 ± 0.019
18,CTTAATGC,-0.177 ± 0.047
19,AAACAATT,-0.0761 ± 0.074
20,AAACGGTG,0.0251 ± 0.011
21,TACGCCCA,-0.11 ± 0.0035
22,CGGTATAG,-0.097 ± 0.088

row,Sequence,PBM E-score of 8-mer
1,CATCCTTC,-0.101 ± 0.069
2,AACAATAT,-0.0193 ± 0.039
3,CACCGGAG,0.0642 ± 0.062
4,AGGGGAGC,-0.237 ± 0.052
5,ACAAACCC,-0.179 ± 0.0032
6,GGACGGCC,-0.153 ± 0.1
7,CTAATTAA,-0.242 ± 0.042
8,AGTCGCCG,-0.117 ± 0.074
9,AAGTTGTC,0.256 ± 0.028
10,CAGCTCGA,0.147 ± 0.0096
11,GAAATCAC,0.192 ± 0.037
12,AAAATTCT,-0.0361 ± 0.048
13,CTGTTCCC,-0.019 ± 0.069
14,CGGGGATC,-0.123 ± 0.05
15,AGTACACG,0.00987 ± 0.041
16,AGAAACGG,-0.189 ± 0.042
17,GCTGATTA,-0.132 ± 0.037
18,GACGCGTA,0.0663 ± 0.0082
19,GGTAACAA,0.247 ± 0.012
20,CATACTAC,-0.0976 ± 0.021
21,TACCTGCA,-0.118 ± 0.035
22,CACTCGGA,0.249 ± 0.012

row,Sequence,PBM E-score of 8-mer
1,ACCCCGCT,0.0349 ± 0.028
2,CCAGTTGA,0.0132 ± 0.086
3,GAGAAAGC,0.0719 ± 0.029
4,GATAGATC,-0.142 ± 0.094
5,ACTCCTGA,0.00336 ± 0.0024
6,AACCACGT,-0.161 ± 0.017
7,AATCATAA,0.0363 ± 0.0088
8,ATGTGGTC,0.00071 ± 0.051
9,TAAGTGCA,-0.0231 ± 0.017
10,CCGCTACC,0.162 ± 0.04
11,AGACACTA,0.0382 ± 0.064
12,ACCCAAAT,-0.11 ± 0.019
13,GATAGGGA,-0.0798 ± 0.014
14,GGATGCTA,-0.128 ± 0.03
15,ATGTCCCA,-0.236 ± 0.1
16,ATTCCAAG,-0.131 ± 0.023
17,GGAGCGAC,0.0869 ± 0.044
18,CGTTGGGC,-0.255 ± 0.022
19,GAACTCTA,-0.0304 ± 0.00088
20,AGGCTGAT,0.00111 ± 0.036
